Here are results for nine molecules from article PMC9911399, “Two distinct binding modes provide the RNA-binding protein RbFox with extraordinary sequence specificity”.

Numbering of substitutions follows the chain as printed; changes in the protein carry UniProt numbers. The list shows a part of the results.

T1: RBFOX1 RRM RbFoxmut (Fox-RRM*) (Homo sapiens, UniProt Q9NWB1 109-208, R118D;E147R;N151S;E152T)
T1 sequence: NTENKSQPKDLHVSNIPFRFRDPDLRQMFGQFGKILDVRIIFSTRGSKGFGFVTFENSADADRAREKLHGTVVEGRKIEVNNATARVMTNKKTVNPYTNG

B1: CAGGCGG (DNA:RNA)
RNA: GGGAGACCGGAAUUCAGAUUGUCCCAGGCGGUUAAAUCCCGUCGUAGCCACCA
DNA 1: CAATCTGAATTCCGGTCTCCC
DNA 2: TGGTGGCTACGACGGGATT
B2: ACUACAC (DNA:RNA)
RNA: B1 RNA with C25A, A26C, G27U, G28A, G30A, G31C
DNA 1: CAATCTGAATTCCGGTCTCCC
DNA 2: TGGTGGCTACGACGGGATT
B3: GCGCUAU (DNA:RNA)
RNA: B1 RNA with C25G, A26C, G28C, C29U, G30A, G31U
DNA 1: CAATCTGAATTCCGGTCTCCC
DNA 2: TGGTGGCTACGACGGGATT
B4: CAUAUCC (DNA:RNA)
RNA: B1 RNA with G27U, G28A, C29U, G30C, G31C
DNA 1: CAATCTGAATTCCGGTCTCCC
DNA 2: TGGTGGCTACGACGGGATT
B5: UGAGUUC (DNA:RNA)
RNA: B1 RNA with C25U, A26G, G27A, C29U, G30U, G31C
DNA 1: CAATCTGAATTCCGGTCTCCC
DNA 2: TGGTGGCTACGACGGGATT
B6: UACCGCC (DNA:RNA)
RNA: B1 RNA with C25U, G27C, G28C, C29G, G30C, G31C
DNA 1: CAATCTGAATTCCGGTCTCCC
DNA 2: TGGTGGCTACGACGGGATT
B7: CUAGAAC (DNA:RNA)
RNA: B1 RNA with A26U, G27A, C29A, G30A, G31C
DNA 1: CAATCTGAATTCCGGTCTCCC
DNA 2: TGGTGGCTACGACGGGATT
B8: CACAGCG (DNA:RNA)
RNA: B1 RNA with G27C, G28A, C29G, G30C
DNA 1: CAATCTGAATTCCGGTCTCCC
DNA 2: TGGTGGCTACGACGGGATT
B9: CUGCGCA (DNA:RNA)
RNA: B1 RNA with A26U, G28C, C29G, G30C, G31A
DNA 1: CAATCTGAATTCCGGTCTCCC
DNA 2: TGGTGGCTACGACGGGATT

This assay concerns the target T1, RBFOX1 RRM RbFoxmut (Fox-RRM*). Put plainly: EMSA; HiTS-Eq, 1 nM pool, 10 min; buffer printed only for the single-RNA assays: 10 mM Tris pH 7.5, 150 mM NaCl, 3.4 mM EDTA, 0.001% NP-40, 30 C. The following applies: tags: His6 N-terminal (pET28a); label: 5' 32P. In outline: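 Purified RbFox RRM (wild type or mutant) was equilibrated for 10 min in 50 µL with 1 nM of a 5′-radiolabelled pool of RNA with 7 randomized nucleotides, its flanks annealed to DNA oligonucleotides, across increasing protein concentrations. Free RNA was separated by 8% native PAGE, excised, reverse-transcribed, PCR-barcoded and sequenced on an Illumina HiSeq 2500. Relative association constants came from read-count changes of each variant against the control reaction, normalised to the cognate motif.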
For orientation: Mobility shift assays separate free from complexed probe on a gel.
As for B1, the binding signal is 0.107 KA relative to UGCAUGU. Regarding B2, the binding signal is 0.0796 KA relative to UGCAUGU. On to B3, for which the binding signal was 0.0973 KA relative to UGCAUGU. Then B4, with 0.0805 KA relative to UGCAUGU; and B5, with 0.0467 KA relative to UGCAUGU; and B6, with 0.124 KA relative to UGCAUGU. Then B7, with 0.0736 KA relative to UGCAUGU; and B8, with 0.108 KA relative to UGCAUGU; and B9, with 0.155 KA relative to UGCAUGU.
